Consider one substance from patent publication EP2330125A2.

This assay has as its target amylin receptor (rat). Nature of the assay: 125I-amylin displacement, rat nucleus accumbens membranes.

Turning to “hAmylin(1-7)-11,18Arg-sCT(8-27)-Amylin(33-37) (sequence not shown) (peptide; modification not given)”, the Receptor Binding stood at 0.03.
